Source: PMC4336329 (PLoS ONE, 2015)
Among all 310,000 compounds or so, about 2,200 (0.71%) showed an effect of 50% or more. The effect is printed as a negative number. The list shows a part of the results.

Biological target: human ether-à-go-go-related gene (hERG) potassium channel (human, UniProt Q12809)
Experiment: primary screen, population patch clamp on CHO cells stably expressing hERG

Chain of human ether-à-go-go-related gene (hERG) potassium channel (Q12809 whole entry, looked up): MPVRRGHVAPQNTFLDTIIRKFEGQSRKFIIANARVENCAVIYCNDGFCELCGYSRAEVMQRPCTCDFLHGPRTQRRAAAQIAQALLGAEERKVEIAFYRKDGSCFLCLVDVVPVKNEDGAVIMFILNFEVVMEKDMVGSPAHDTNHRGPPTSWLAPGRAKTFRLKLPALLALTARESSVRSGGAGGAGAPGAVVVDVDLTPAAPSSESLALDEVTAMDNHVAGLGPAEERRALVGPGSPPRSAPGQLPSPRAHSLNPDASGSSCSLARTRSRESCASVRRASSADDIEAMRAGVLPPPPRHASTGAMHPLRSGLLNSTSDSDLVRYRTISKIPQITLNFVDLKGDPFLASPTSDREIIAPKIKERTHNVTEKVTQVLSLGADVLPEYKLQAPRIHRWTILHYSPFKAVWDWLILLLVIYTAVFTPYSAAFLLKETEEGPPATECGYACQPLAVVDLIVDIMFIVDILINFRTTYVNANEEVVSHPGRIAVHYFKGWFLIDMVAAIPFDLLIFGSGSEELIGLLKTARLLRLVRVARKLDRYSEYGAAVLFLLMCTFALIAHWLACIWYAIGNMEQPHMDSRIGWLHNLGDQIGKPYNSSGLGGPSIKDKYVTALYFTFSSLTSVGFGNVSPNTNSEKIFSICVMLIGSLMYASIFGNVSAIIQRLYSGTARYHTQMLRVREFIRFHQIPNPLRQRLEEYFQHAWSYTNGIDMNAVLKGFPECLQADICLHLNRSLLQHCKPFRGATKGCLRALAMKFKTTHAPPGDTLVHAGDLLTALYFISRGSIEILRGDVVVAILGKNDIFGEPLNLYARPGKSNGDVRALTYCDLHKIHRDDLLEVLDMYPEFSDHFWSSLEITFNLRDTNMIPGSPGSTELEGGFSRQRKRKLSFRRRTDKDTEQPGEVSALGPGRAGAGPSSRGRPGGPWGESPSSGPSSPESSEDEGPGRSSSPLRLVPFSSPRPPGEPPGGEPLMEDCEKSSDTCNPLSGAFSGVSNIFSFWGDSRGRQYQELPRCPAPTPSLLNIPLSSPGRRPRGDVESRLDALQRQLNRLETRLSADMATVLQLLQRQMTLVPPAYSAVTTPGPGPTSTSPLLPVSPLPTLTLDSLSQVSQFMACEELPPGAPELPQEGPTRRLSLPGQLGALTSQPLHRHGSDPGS

Row | Structure (SMILES) | hERG current change (%, negative = inhibition) at 1uM [%]
1 | Cc1ccc(-c2nnn(CC(=O)N3CCCCC3)n2)cc1 | 9.43
2 | O=C(Nc1ccccc1N1CCN(C(=O)c2ccccc2)CC1)c1ccccc1Cl | -29.8
3 | Cc1ccc([N+](=O)[O-])cc1-c1[nH]c(-c2ccc(O)c(O)c2)nc1-c1ccccc1 | 0.511
4 | Cc1cc(CSc2ccccc2)ccc1NC(=O)c1ccc(Br)cc1 | 7.18
5 | COc1ccccc1CNC(=O)C(=O)Nc1ccc(C(=O)N2CCC(C)CC2)cc1 | 12.4
6 | Cc1onc(-c2c(Cl)cccc2Cl)c1COC(=O)c1ccc([N+](=O)[O-])cc1 | 17.5
7 | COc1ccc(-c2nc(CS(=O)CC(=O)NCCc3ccc(C)cc3)c(C)o2)cc1OC (stereo not drawn) | 10.7
8 | O=C(CCC(=O)N1CCOCC1)Nc1ccc(Cl)c(Cl)c1 | 6.92
9 | CCOc1ccc(NC(=S)N(CCCN2CCCC2)Cc2cccn2Cc2ccc(Cl)cc2)cc1 | -2.47
10 | O=C(Nn1cnnc1)c1ccc([N+](=O)[O-])cc1 | 9.26
11 | CCOc1ccc(CN(C)C(=O)CNC(=O)C2CCCCC2)cc1 | 16.6
12 | CC(C)Oc1ccccc1C1Nc2ccccc2C(=O)N1c1ccc2c(c1)OCCO2 (stereo not drawn) | 4.74
13 | Cc1ccc(C(C)NC(=O)COC(=O)C2=COCCO2)cc1C (stereo not drawn) | 8.35
14 | CC1Cc2ccccc2N1C(=O)CSc1nnnn1C(C)C (stereo not drawn) | 12.9
15 | COc1cc(/C=N/NC(=O)c2cc3ccccc3[nH]2)ccc1O | 13
16 | Cc1cc(C)nc(SCCn2c(N3CC(C)OC(C)C3)nc3c2c(=O)n(C)c(=O)n3C)n1 (stereo not drawn) | 10.6
17 | Cc1cc(N(CC(=O)NC(C)C)S(C)(=O)=O)ccc1Br | 18.2
18 | COc1ccc(NC(=O)Cc2coc3ccc4ccccc4c23)cc1S(=O)(=O)N1CCOCC1 | -0.271
19 | CC(C)C(=O)NC(=S)/C=C1/N(C)c2ccccc2C1(C)C | 5.4

Row | Structure (SMILES) | hERG current change (%, negative = inhibition) at 1uM [%]
20 | O=C(NCc1cccnc1)C(=O)Nc1nc2ccccc2s1 | 4.08
21 | COc1ccc(OCCCSc2ncccn2)cc1 | 5.98
22 | O=C(O)c1cccc(-c2nc3ccccc3[nH]2)c1 | 7.55
23 | COc1ccc(CNC(=O)c2cccnc2Sc2ccc(Cl)cc2)cc1 | 2.07
24 | CCOc1ccc(-c2nc(N)ncc2Oc2ccccc2Br)c(O)c1 | 11.9
25 | O=C(N/N=C/c1cccn1-c1ccccc1)c1ccncc1 | 12.1
26 | CCn1c(CN2c3ccccc3Sc3ccccc32)n[nH]c1=S | 16.1
27 | CC1CN(C(=O)c2ccc(Br)c(S(=O)(=O)N3CCOCC3)c2)CC(C)O1 (stereo not drawn) | 11.3
28 | CC(C)C1Nc2ccc(C(=O)NC3CCCCC3)cc2NC1=O (stereo not drawn) | 15.3
29 | COc1cccc(NC(=O)C(Cc2ccccc2)NC(=O)C2CCC(C)CC2)c1 (stereo not drawn) | 9.31
30 | O=C(/C=C/c1ccco1)N1CCN(c2ccccc2)CC1 | 12.2
31 | CCc1ccccc1Cn1c(=O)oc2cccnc21 | 12.9
32 | Cc1ccc2c(C)c(C(=O)NCc3ccc(S(N)(=O)=O)cc3)oc2c1 | 11.8
33 | Nn1c(SCc2cccc3ccccc23)nnc1-c1ccco1 | 5.7
34 | CCCCN(N=Nc1nonc1OC)c1nonc1OC | 9.5
35 | S=c1[nH]nc(Cc2ccccc2)n1-c1ccccc1 | 20.3
36 | CCOC(=O)COc1ccc(S(=O)(=O)NCCC2=CCCCC2)cc1 | 13.7
37 | COc1ccc(CN(C)C(=O)CCCNC(=O)c2ccc(Cl)cc2)cc1 | -2.32
38 | COc1ccc(C(=O)Nc2ccc([N+](=O)[O-])cn2)c(OC)c1 | 8.86

Row | Structure (SMILES) | hERG current change (%, negative = inhibition) at 1uM [%]
39 | Fc1ccc(-c2ccnc(=S)[nH]2)cc1 | 19.9
40 | O=[n+]1c2c(n([O-])c3cc(F)ccc31)CCCC2 | 3.96
41 | Cc1cc(C)n2nc(SCC(=O)NC(=O)NCc3ccco3)nc2n1 | -4.02
42 | C#CCOCCOCCOCCNc1nc(N2CCN(C(=O)CCCCCCCCCCNC(=O)[C@H](CCCCN)n3cc(CCCC(=O)O)nn3)CC2)nc(N2CCN(C(=O)CCCCCCCCCCNC(=O)[C@@H]([C@H](C)O)n3cc(C)nn3)CC2)n1 | 10.6
43 | Nc1nc2ccccc2n1/N=C/c1ccc(Br)cc1 | 16.1
44 | NC(=O)[C@@H]1CCCNc2c(I)cc([N+](=O)[O-])cc2C(=O)N[C@@H](Cc2ccccc2)C(=O)N[C@@H](Cc2cnc[nH]2)C(=O)N1 | 8.88
45 | COCC(C)NC(=O)c1ccccc1OC(C)=O (stereo not drawn) | 2.1
46 | CCn1ccnc1CN(C)Cc1cn[nH]c1-c1ccc(F)cc1F | 10.5
47 | COc1ccccc1C(=O)NCCNC(=O)c1ccc(C)nc1 | 16
48 | O=C(/C=C/c1ccccc1)N1CCCN(C(=O)/C=C/c2ccccc2)CC1 | -44
49 | O=C(c1ccc2c(c1)OCO2)N1CCN=C1SCc1cccnc1 | 7.38
50 | COc1ccc(Cl)cc1NC(=S)Nc1ccccc1C | 7.35
51 | CCCN(CC(=O)Nc1ccccc1C)CC(=O)Nc1ccc(Br)cc1F | 11.1
52 | COC(=O)c1ccccc1NC(=O)C1CCCN(S(C)(=O)=O)C1 (stereo not drawn) | 8.69
53 | c1ccc(CN2CCC3(CC2)Nc2ccccc2S3)cc1 | 13.6
54 | CNc1ccc(Br)cc1C(O)c1ccccc1 (stereo not drawn) | 1.36
55 | CCOc1ccc(N(CC(=O)NC2CCCC2)S(=O)(=O)c2c(C)noc2C)cc1 | 9.83
56 | CCOC(=O)c1nnc2cc(-c3ccccc3)nn2c1C | 10.8
57 | O=C(CSC1=NCCS1)Nc1ccnc2ccccc12 | 7.28
